From article PMC12136788
Some of the results follow.

B1: 36003783_36003903_808_CDS_ENSMUSG00000031529_ENSMUST00000033929|mouse|control|control (ssRNA)
RNA: GGGAGUUCUACAGUCCGACGAUCUUCAUGCAGUGGUGUAUAGUUCCAGUUAUCUCUGGCAUUCGGAUCUGCUCCUUGACACAGUAACAGACUCACAACCUCAGCAUGGCCGAAAGAGCAGGCAUUAUGAAGUGGGAUGAGACCCAACAGAGGAUUGAGCAUCA
B2: chr18:13845789:13845790:-_ENSMUSG00000024420_ENSMUST00000025288|mus_mus|motif|central (ssRNA)
RNA: GGGAGUUCUACAGUCCGACGAUCAGAACCAUGGGGCAGUGACCCUGCGUUGUGAUGCUGGAGAUGUGGCUGUCACAGGCGGGUCCAUUGGUGACAAGGGGUCACACAUCCAUCAGUCCAGGUUGCAUUUUUCUUACCUCAAAGCAACAGAGGAUUGAGCAUCA
B3: chr12:111929536:111929537:-_ENSMUSG00000021270_ENSMUST00000094361|mus_mus|FALSE|FALSE (ssRNA)
RNA: GGGAGUUCUACAGUCCGACGAUCUAAGAUGUAAUUUAAGCCAUCUUAAUUUGGUCUCCUAAGGAAUCCAGCUCAACAGCUAAACACUUCAGACCAGAGCAAACAUGAACAGUAGGUUACGUUACGUCUUAUAACAAACGCUCUCAACAGAGGAUUGAGCAUCA
B4: chr2:122485053:122485054:-_ENSG00000155438_ENST00000285814|hu_hu|FALSE|FALSE (ssRNA)
RNA: GGGAGUUCUACAGUCCGACGAUCUCAACUUUCUAUCCAGGCAGAGUAAACUAAGGAGAGCUAUGAAAUAUCAAAAGAAAACUAGAGGCCAGGACAAAGAGGCAAUGUCAGCCAAGCCACUGCAAGAUGGUAUGCACCCCUGUACAACAGAGGAUUGAGCAUCA
B5: chr1:63223577:63223578:+_ENSMUSG00000025967_ENSMUST00000129339|mus_mus|motif|central (ssRNA)
RNA: GGGAGUUCUACAGUCCGACGAUCAAAGGUCAAGGUCCGUUCCUAGUCUCGGUCCUCCGCGUACCACUGCGACUUGGUAACGGAAGGGCCCACAGGUCGUCCGCCGGCCUUCCCUUGUCUUUGGAAGAAAAUUAAUAAAGGAGGCAACAGAGGAUUGAGCAUCA
B6: chr16:70566459:70566460:+_ENSG00000189091_ENST00000302516|hu_hu|FALSE|FALSE (ssRNA)
RNA: GGGAGUUCUACAGUCCGACGAUCAAGGAAGUUGCCGUGUUCCUCCAAAGGUUCACUGUAUUUUCGGACCACAUGAUUUAAACCAAGGUCUAGCUCAUAGAAAGUAAGUGUCUGCUGGGUAUUAGCUGCUGCUUCCCCUGUUGGCAACAGAGGAUUGAGCAUCA
B7: chr2:48026839:48026840:+_ENSG00000116062_ENST00000540021|hu_hu|hu_hu_hu_mus_False|1_38 (ssRNA)
RNA: GGGAGUUCUACAGUCCGACGAUCAUAGUGAGCCACUAGCGUCCUAAAUCUGGAACAGUGGCGGUCAUCCGAAAACUGGCCGAUGAAAAACUUGCCCAGUGAAGUAUCCACAAAGCAAACACCAUACACACGAGUGUGGCCAGACAACAGAGGAUUGAGCAUCA
B8: chr12:124105631:124105632:-_ENSG00000111361_ENST00000424014|hu_hu|FALSE|FALSE (ssRNA)
RNA: GGGAGUUCUACAGUCCGACGAUCUCUUUCAUAGAGUUUAUUUGAAAAGAUGCUGAAUUUAUUCCCAAGUAUAAUUUUAAAAAGCUGUUUAGGACCCAAACAUAUUUAAACAUCUCUUACACAUACAGAAUUUCAGUUUACAAACAACAGAGGAUUGAGCAUCA
B9: chr8:17156679:17156680:-_ENSG00000003987_ENST00000180173|hu_hu|FALSE|FALSE (ssRNA)
RNA: GGGAGUUCUACAGUCCGACGAUCAUACUUAAAUUCAUAUGUAAGACCAGGAGAAUGAAUGUUGCUUCUACCUCGUUAGCUAUUAAAUCAGUGUUAGAGAAAAAGUGAGAUACAAGGUUUAGCAUUUUUAAAUAAUGAGGAGAACAACAGAGGAUUGAGCAUCA
B10: chr4:144460044:144460045:+_ENSG00000153147_ENST00000283131|hu_mus|hu_hu_hu_mus_False|8_28 (ssRNA)
RNA: GGGAGUUCUACAGUCCGACGAUCACGGUCCAUAGCCUGAAGAUCAACUUGCGGAUUCCAAUCUGAGUCAUAUAAAAUGACUACAUCAGCAGUUGCAAGAUUGAUGCCAAGACCACCAGCACGUGUGCUUAACAUGAAUACAAACAACAGAGGAUUGAGCAUCA
B11: chr2:198351390:198351391:-_ENSG00000144381_ENST00000345042|hu_hu|hu_hu_hu_mus_False|18_78 (ssRNA)
RNA: GGGAGUUCUACAGUCCGACGAUCUCAUUCCCACCCUCCACAGAAAGGCUGCUUCUGUUCUCAUCUGUGGUGACACAGCGCUACAGUCCUGAUGCUCACAGAACAGUAGAGAUGCCUCCUCAGUGAUAGUUGAAAGCAGGACACCAACAGAGGAUUGAGCAUCA
B12: chr7:151048522:151048523:+_ENSG00000013374_ENST00000566856|hu_mus|hu_hu_hu_mus_True|28_88 (ssRNA)
RNA: GGGAGUUCUACAGUCCGACGAUCCUGUUUCUUAUUUAUUACGAUCUUGAUAUAAUUUUCUUGAAAUCCGAAAGUUUCAGCUAUUUGACACCUCAGGUCUCUACCAGUGAUGUGCAAGCGGGUCUCCAACAAGCUUUUCUUAUCCAACAGAGGAUUGAGCAUCA
B13: chr6:150114741:150114742:+_ENSG00000120265_ENST00000367380|hu_hu|FALSE|FALSE (ssRNA)
RNA: GGGAGUUCUACAGUCCGACGAUCCCCUGAAGACAGAAGUGUUGGAUCGUCCUUCCUGACAUUAUUUACUGAGUCAUCUACUAGCUCUUUAAUGUGAUCAAUUCCUAUGACUUUUCCAGUACAUCCAACCAUACGUGCAAAACACAACAGAGGAUUGAGCAUCA
B14: chr17:64801638:64801639:+_ENSG00000154229_ENST00000413366|hu_mus|hu_hu_hu_mus_False|18_38 (ssRNA)
RNA: GGGAGUUCUACAGUCCGACGAUCUAUAUAUAUAUAUACAUAUGUACACAUAUAUAGUAAAACCCUAGUUAAACGUGUAAAGUAGCCAUUCAUUUUUGAAAUUUUAUCUACAUUAAAAAAGUAAUCUAUCUGAUAGAGUGCCAGCAACAGAGGAUUGAGCAUCA
B15: chr15:39702511:39702512:-_ENSMUSG00000022305_ENSMUST00000022916|mus_mus|FALSE|FALSE (ssRNA)
RNA: GGGAGUUCUACAGUCCGACGAUCUUUUCUUCAAGAUUAUAGCACUGACCCCCUCCCCCAAGAAUAAAAUAUCCUGGAAAAAAAUCACUCUCACAAUAAUGCAGUUUUUAAAUACAACAAAUAAAUAUGAAACCAGCAAAGCAACAACAGAGGAUUGAGCAUCA
B16: chr3:148802587:148802588:-_ENSG00000071794_ENST00000310053|hu_mus|hu_hu_hu_mus_False|38_48 (ssRNA)
RNA: GGGAGUUCUACAGUCCGACGAUCUCCAACAACUUGUCCUCUCAUAGUUCCAAAUAAAACCAAAUCUUGCUCUUCAUCACUCGUUAGAAAGUCAUCUGGAGGGAUAAUGUCUUGGAAUUCAAAAUGUGGCAAGAAAGUUGAGUACAACAGAGGAUUGAGCAUCA
B17: chr6:40197388:40197389:+_ENSMUSG00000057716_ENSMUST00000061740|mus_mus|mus_mus_mus_hu_False|38_78 (ssRNA)
RNA: GGGAGUUCUACAGUCCGACGAUCGAGACACUGGGGUGGAUUUAUUCCACCUCUGUUUGCUAGCCUCCCACUAAGACUGUUAUUUUGGGAUUCAUGGCCUUGAAGAUCAAGAGGGAAAGGAAGAGGAUGGAAAGAGUCAAGAGUCAACAGAGGAUUGAGCAUCA
B18: 31462005_31462125_6649_3pUTR_ENSMUSG00000025609_ENSMUST00000026699|mouse|control|control (ssRNA)
RNA: GGGAGUUCUACAGUCCGACGAUCUGAAAAUUGGUGCUUGGCUAAAACACAAUACAAAGAUAGGGUGACGGCAAAUUUAAGUGUGGUGGAGCACUGGUCUCCAUGAGCUGGCUCUCUUCAGAACCUGGAUACAGCUAACAGUUCCAACAGAGGAUUGAGCAUCA
B19: chr16:94664741:94664742:+_ENSMUSG00000040785_ENSMUST00000117648|mus_hu|mus_mus_mus_hu_False|18_18 (ssRNA)
RNA: GGGAGUUCUACAGUCCGACGAUCUGGUACUGAUCUUGGUAGCUGAUAUUCAGGAGAAAGGCUGGCCAAGGGUGUAUAUAUGCUGGUGUACUGGGGCAAACCUGGUAACACGUUUAUGUACGCUGGUGGUGUCUGGGUGAUAUCCAACAGAGGAUUGAGCAUCA
B20: 52824636_52830982_63_CDS_ENSG00000101132_ENST00000441080|human|control|control (ssRNA)
RNA: GGGAGUUCUACAGUCCGACGAUCUUCUUCCUUCAGCUCUGUGAUUCUACUUGUAUUCCGUGCAAAUUUGUUUAUCUUUUGUUGAUCUUCGAAAGUAACAUUGACAUCUUCUGCAGCCGCCUUCUUCAUGGUGGCCGCCAUCUUCAACAGAGGAUUGAGCAUCA
B21: chr4:115894766:115894767:+_ENSMUSG00000028698_ENSMUST00000030464|mus_hu|mus_mus_mus_hu_True|78_88 (ssRNA)
RNA: GGGAGUUCUACAGUCCGACGAUCUUCCACACGGAAAUGUACUUCGGGUUUCCAACGGCCAGUACAAAGUCCGGCCAAACUACCCGAACAGGGUCCUCCCCCUCUCUCCUACAGAACACAACAAAAUGCCCCCGAACUUUCAAGCAACAGAGGAUUGAGCAUCA
B22: chr10:57235669:57235670:-_ENSMUSG00000019877_ENSMUST00000020027|mus_mus|FALSE|FALSE (ssRNA)
RNA: GGGAGUUCUACAGUCCGACGAUCUUCAGAAUUGUGAAGCAGUAUUAACACAGAGUAAGGCUGGAACAUGAAGAUGAACUGCUAUAGUACAUUUGCACAAUAAAUACUUUUAAAGACACAUGUAGUUCUUUAAAAGCUAGAUACCAACAGAGGAUUGAGCAUCA

molecular target: T1, UNK ZnF1-3 (human, UniProt Q9C0B0 31-174); test: nsRBNS (natural sequence RNA bind-n-seq); RBNS binding buffer (assumed for nsRBNS): 25 mM Tris pH 7.5, 150 mM KCl, 3 mM MgCl2, 0.01% Triton X-100, 500 ug/ml BSA, 20 U/ml SUPERase-In, 4 C; UNK is unkempt and MSI1 is Musashi-1; names of the RNAs are library labels; protein concentration not given here; high values mean tight binding
T1 sequence: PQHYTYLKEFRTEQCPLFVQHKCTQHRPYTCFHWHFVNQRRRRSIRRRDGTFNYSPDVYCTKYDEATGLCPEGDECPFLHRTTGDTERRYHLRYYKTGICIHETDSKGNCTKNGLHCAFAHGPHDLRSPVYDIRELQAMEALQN

Point of comparison: B19, binding signal 0.977 enrichment R. Against it:
- B1 — higher, 1.14 enrichment R
- B2 — lower, 0.819 enrichment R
- B3 — lower, 0.648 enrichment R
- B4 — higher, 1.61 enrichment R
- B5 — lower, 0.526 enrichment R
- B6 — lower, 0.727 enrichment R
- B7 — lower, 0.934 enrichment R
- B8 — higher, 1.01 enrichment R
- B9 — higher, 1.33 enrichment R
- B10 — higher, 1.03 enrichment R
- B11 — higher, 1.19 enrichment R
- B12 — lower, 0.955 enrichment R
- B13 — higher, 1.05 enrichment R
- B14 — higher, 1.4 enrichment R
- B15 — higher, 3.13 enrichment R
- B16 — higher, 1.27 enrichment R
- B17 — higher, 1.25 enrichment R
- B18 — higher, 1.05 enrichment R
- B20 — lower, 0.371 enrichment R
- B21 — lower, 0.948 enrichment R
- B22 — higher, 1.12 enrichment R
